The structures appear in SMILES notation. Over roughly 110,000 compounds, “z-score” has its median near -0.1; the highest 2% begin near 2. Some of the results follow.

For this experiment, the target named is Metabotropic glutamate receptor 8 (Rattus norvegicus) (UniProt P70579). The experiment can be described thus: rat mGluR8 modulators via GIRK flux, primary screen, cell-based, thallium flux, HTS (AID 488969). The settings on record: HEK293 rat mGluR8, GIRK (G protein-gated inwardly rectifying potassium channel) thallium flux, FluoZin2; at 10 µM; stronger effect = higher value; submaximal glutamate (EC20) added with thallium.
UniProt P70579, sequence (P70579 whole entry, looked up): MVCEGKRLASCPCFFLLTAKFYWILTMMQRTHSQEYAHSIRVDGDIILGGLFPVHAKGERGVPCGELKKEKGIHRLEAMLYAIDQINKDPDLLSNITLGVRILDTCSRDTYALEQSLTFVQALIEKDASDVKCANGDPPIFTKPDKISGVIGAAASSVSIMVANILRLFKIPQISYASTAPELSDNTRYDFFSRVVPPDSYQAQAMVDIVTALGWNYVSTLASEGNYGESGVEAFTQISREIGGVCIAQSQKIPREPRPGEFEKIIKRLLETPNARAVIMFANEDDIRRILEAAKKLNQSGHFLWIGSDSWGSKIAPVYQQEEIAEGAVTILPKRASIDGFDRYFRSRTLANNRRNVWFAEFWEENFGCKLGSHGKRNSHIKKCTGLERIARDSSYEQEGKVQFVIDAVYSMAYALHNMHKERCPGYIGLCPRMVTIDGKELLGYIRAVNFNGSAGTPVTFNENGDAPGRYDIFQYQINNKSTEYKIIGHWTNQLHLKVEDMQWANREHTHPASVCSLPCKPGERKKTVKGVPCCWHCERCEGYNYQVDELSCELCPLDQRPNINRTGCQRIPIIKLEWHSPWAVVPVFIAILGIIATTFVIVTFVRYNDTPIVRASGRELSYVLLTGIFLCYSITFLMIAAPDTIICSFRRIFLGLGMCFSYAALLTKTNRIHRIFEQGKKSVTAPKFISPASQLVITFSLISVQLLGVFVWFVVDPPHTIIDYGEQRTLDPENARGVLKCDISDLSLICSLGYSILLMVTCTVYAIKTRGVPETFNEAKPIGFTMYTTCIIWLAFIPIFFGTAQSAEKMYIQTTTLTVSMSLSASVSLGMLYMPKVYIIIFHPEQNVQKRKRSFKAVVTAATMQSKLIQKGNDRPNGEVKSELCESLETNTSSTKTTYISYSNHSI
On to `N=C(N)SCc1nc2ccccc2c(=O)n1-c1ccccc1Cl`, for which the z-score was -0.219.
With `Cc1[nH]n(-c2ncc(-c3ccccc3)s2)c(=O)c1C(c1ccc(Cl)cc1)C(C#N)C#N` (stereo not given), the z-score is 0.15.
Turning to `COc1ccc(OC)c(Nc2nc(N)nc(CSc3nnc(-c4ccncc4)o3)n2)c1`, the z-score was -0.218.
In the case of `CCCCN(CCCNC(=O)c1ccc2nc(N3CCOCC3)sc2c1)Cc1ccccc1`, the z-score was -0.0195.
Then `Cc1nc2ccccc2c(=O)n1NC(=O)/C=C/c1ccccc1`, with 0.0247; and `CCn1c(C)[n+](CCCS(=O)(=O)[O-])c2cc(Cl)c(Cl)cc21`, with -0.165.
Then `CCCNc1nc2c(c(=O)n(C)c(=O)n2C)n1Cc1ccc(F)cc1`, with -0.637.
With `O=C(COc1ccc(N2CC(C(=O)O)CC2=O)cc1)Nc1cccc(C(F)(F)F)c1` (stereo not given), the z-score is 0.0536.
Take `CC(C)(C)C(=O)N(CCN(C(=O)C(C)(C)C)c1ccccc1)c1ccccc1`: the z-score is -0.275.
Take `O=C(CCc1nc(-c2ccccc2)no1)NCCc1ccccc1`: the z-score stood at 0.0357.
With `CC(=O)Nc1ccc(S(=O)(=O)NC(CC(=O)NCCc2ccccc2)C(C)C)cc1` (stereo not given), the z-score is -0.221.
In the case of `CC(=O)Nc1ccc(S(=O)(=O)N2CCN(CCCOc3ccccc3Cl)CC2)cc1`, the z-score is -0.242.
On to `CN(CC(=O)Nc1nc2ccccc2s1)S(=O)(=O)c1ccc(Br)cc1`, for which the z-score was found to be 0.828.
`COc1ccc(N(CC(=O)N/N=C/c2cc3ccc(OC)cc3nc2Cl)S(=O)(=O)c2ccccc2)cc1` had a z-score of -0.119.
`CCC(CC)NC(=O)/C=C/c1ccccc1Cl`: the z-score is -0.178.
As to `COc1ccc(C(=O)O/N=C(\N)Cc2ccc(Cl)cc2Cl)cc1OC`, the z-score was -0.448.
For the compound `Cc1[nH][nH]c(=O)c1C(c1ccc(-c2ccc(Cl)c(Cl)c2)o1)c1c(C)[nH][nH]c1=O`, the z-score is -0.342.
The compound `Cc1ccc2c(c1)nnn2C1CCN(CC(=O)Nc2ccccc2N2CCOCC2)CC1` had a z-score of -1.3.
Regarding `CSc1nc2ccc3nc(NC(=O)c4ccc(Cl)s4)sc3c2s1`, the z-score was found to be 0.273.
Then `COc1ccc(/C=C/C(=O)NC(=S)NNC(=O)c2cccnc2)cc1OC`, with -0.273; and `Cc1ccc(OCC(=O)Nc2nnn(C)n2)c(C)c1`, with 0.068; and `N#Cc1cnc(SCC(=O)NNC(=O)COc2cccc3ccccc23)nc1N`, with 0.104.
Then `CCC(=O)NC(Nc1cccc(C)n1)(C(F)(F)F)C(F)(F)F`, with 0.107.
`CCn1c(-c2ccc(F)cc2)n[nH]c1=S`: the z-score is -0.0596.
`Cc1cccc(-n2nnnc2SCC(=O)c2cc(C)n(Cc3ccco3)c2C)c1`: the z-score amounted to 0.103.
For `O=C1CC(N2CCC(c3nc4ccccc4s3)CC2)C(=O)N1` (stereo not given) the value was -0.0191; for `COc1ccc(N2C(C)=CS/C2=C(/C#N)c2nnc(N3CCOCC3)n2-c2ccccc2)cc1`, -0.189; for `CSC1=NC2C(N1)N(C)C(=O)N2C` (stereo not given), 0.487.
`COc1ccc(N(C(C)C(=O)NC2CCCCCC2)S(C)(=O)=O)cc1` (stereo not given) gave a z-score of 0.00612.
In the case of `O=C1CC(c2ccc(S(=O)(=O)Nc3cc(C(F)(F)F)cc(C(F)(F)F)c3)cc2)CN1` (stereo not given), the z-score was found to be 0.112.
`Cc1ccc(C(=O)O/N=C(\N)c2ccc(Br)cc2)cc1C` gave a z-score of 0.201.
For `COc1cc(-c2cc(C(=O)O)c3c(OC)c(OC)c(OC)cc3n2)ccc1O` the value was 0.239.
For the compound `CCOC(=O)C(=CNCC(=O)OC)C(=O)OCC`, the z-score was determined as 0.0437.
`Cc1cc(Nc2ncc(Cl)cc2Cl)n(-c2ccccc2C)n1` yielded a z-score of -0.174.
In the case of `O=C(c1c[nH]c2ccc(S(=O)(=O)N3CCC4(CC3)OCCO4)cc2c1=O)N1CCOCC1`, the z-score is -0.224.
Compound `CCCn1c(C)cc(/C=C(\C#N)C(=O)OCC(=O)NC(=O)NCC)c1C` came in with a z-score of -0.591.
Then `Cc1nc(SCC(=O)Nc2c(C)nn(C)c2C)c2cnn(-c3ccccc3)c2n1`, with -0.799; and `Cc1cc(C(=O)N/N=C2\CCCC(=O)C2)c(C)n1-c1ccccc1`, with 0.227.
In turn, `O=C(c1cnn2c(C(F)(F)F)cc(-c3ccccc3)nc12)N1CCCc2ccccc21` displayed a z-score of -0.322.
Then `COC(=O)c1sc(NC(=O)c2oc3ccccc3c2C)nc1C`, with 0.295.
`COC(=O)C(CCSC)NC(=O)CNS(=O)(=O)c1ccc(Br)cc1` (stereo not given) came in with a z-score of -0.207.
For `CCCCCCOc1ccc(N2C(=O)CC(N3CCN(C(=O)c4ccco4)CC3)C2=O)cc1` (stereo not given), the z-score worked out at 0.102.
As to `CC(C)(C)NC(=O)CSc1nc2ccc(NC(=O)CSc3nnnn3Cc3ccccc3)cc2s1`, the z-score is -0.227.
Regarding `O=C(CSc1ccc(-c2ccco2)nn1)c1cccc([N+](=O)[O-])c1`, the z-score was -0.24.
For `O=C(CC1SC(=Nc2ccccc2)N(CCc2c[nH]c3ccccc23)C1=O)Nc1ccccc1F` (stereo not given), the z-score is -0.0173.
For the compound `Cc1ccc(-c2noc(CSc3nnc(-c4ccncc4)n3-c3ccc(F)cc3)n2)cc1`, the z-score is -0.168.
With `O=C(CSc1nc2ccccc2c(=O)n1-c1cccc(C(F)(F)F)c1)NC1CC1`, the z-score is -0.265.
For the compound `COC(=O)C1=C(C)Nc2nnnn2C1c1ccco1` (stereo not given), the z-score was -0.268.
Regarding `O=C(CCN1C(=O)S/C(=C\c2ccccc2)C1=O)Nc1ccc(S(=O)(=O)Nc2nccs2)cc1`, the z-score came to 0.0301.
In the case of `O=c1c(Cc2ccc(F)cc2)c(O)ccn1C1CCCCC1`, the z-score was -0.0593.
Then `O=C(c1ccc(F)cc1)c1cn[nH]c1-c1ccccc1O`, with 0.0354.
In the case of `CC(=O)c1ccc(Cc2cnc(N)s2)cc1`, the z-score is 0.199.
For `O=C(CCOc1ccccc1)NCC(c1ccco1)N1CCCCC1` (stereo not given) the value was 0.398; for `CCOC(=O)N1CCN(Cc2nc3c(c(=O)n(C)c(=O)n3C)n2CCC(C)C)CC1`, -0.493.
Compound `COc1cccc(OC(C)c2ccnc3nc(/N=C/N(C)C)nn23)c1` (stereo not given) yielded a z-score of 0.0638.
Then `COC(=O)CN(C(=S)Nc1ccc(Cl)cc1)C1CC(=O)N(c2ccc(OC)cc2)C1=O` (stereo not given), with -0.282; and `Cc1cc(C)c2[nH]c(=O)c(C(c3nnnn3Cc3ccc4c(c3)OCO4)N3CCCC3)cc2c1` (stereo not given), with -0.213.
Then `CC(NC(c1ccccc1)c1ccccc1)C(=O)N1CCCc2ccccc21` (stereo not given), with 0.067; and `CCCCOC(=O)Cn1c(=N)n(CCN2CCOCC2)c2ccccc21`, with 1.91; and `Cn1nc(-c2ccc(C(=O)N3CCN(c4ccccc4)CC3)cc2)c2ccccc2c1=O`, with 0.0868.
`COc1ccccc1-c1nnc(SCC(=O)NC2CCCCC2)o1` yielded a z-score of -0.234.
Then `O=c1[nH][nH]c(C(F)(F)F)c1C=NCc1ccc(Cl)cc1`, with 0.51; and `COC(=O)C1CCN(C(=O)Cc2ccc(C)cc2)CC1`, with 0.0557.
Consider `Cc1oc(CC(C)C)c(CN)c1C(=O)O`, for which the z-score turned out to be 0.0286.
Regarding `Cc1ccc(NC(=O)Cn2nc([N+](=O)[O-])c(Br)c2C)cc1C`, the z-score is 0.387.
Then `O=C(c1cc2c(s1)CCC2)N1C(=O)c2ccccc2S1(=O)=O`, with 0.704.
For `CCCCN(C(=O)CSc1cc(C)c2ccc(OC)cc2n1)c1c(N)n(Cc2ccccc2)c(=O)[nH]c1=O` the value was 0.118.
Take `Cc1cccc2cc(C(c3nnnn3Cc3ccccc3)N3CCCc4ccccc43)c(=O)[nH]c12` (stereo not given): the z-score is 0.0552.
On to `CCN1CCN(C(=O)C2CCN(Cc3nc(-c4cccc(Cl)c4)oc3C)CC2)CC1`, for which the z-score was -0.235.
With `COc1ccc(NC(=O)COc2ccc(CNCCCN3CCOCC3)cc2OC)cc1`, the z-score is -0.551.
For `O=C(/C=C/c1ccccc1[N+](=O)[O-])NCC1CCCO1` (stereo not given), the z-score was -0.326.
Compound `COC(=O)C1=C(C)NC(=O)C1(Nc1ccc(Cl)cn1)C(F)(F)F` (stereo not given) gave a z-score of -0.151.
`CC1CC(C)CN(CC(=O)Nc2ccc(S(N)(=O)=O)cc2)C1` (stereo not given) gave a z-score of 0.422.
On to `COc1cccc(-c2nnc3sc(-c4ccc(C)cc4)nn23)c1`, for which the z-score is -0.138.
In turn, `Cc1ccc(C(=O)N2c3ccccc3N(Cc3ccccc3)C(=O)C2(C)C)cc1` displayed a z-score of 0.683.
`CCCc1ccc(OCc2ccc(C(=O)N/N=C/c3cccc([N+](=O)[O-])c3)o2)c(OC)c1` displayed a z-score of -0.212.
Compound `O=C(Nc1nc2ccccc2n1CCOc1ccc(Cl)cc1)c1ccco1` returned a z-score of -0.224.
The compound `COc1ccc(/C=N/Nc2ncnc(Cl)c2N)cc1OC` showed a z-score of 0.241.
`CCC(=O)N1CCN(CCN=CC2=C(O)CC(c3cccs3)CC2=O)CC1` (stereo not given) came in with a z-score of -0.433.
`Cc1cc(C)c(C(N)=O)c(NCCc2ccccc2)n1` had a z-score of 0.176.
Take `COc1ccc(N(CC(=O)N/N=C/c2ccc(OC3CSC3)cc2)S(=O)(=O)c2ccccc2)cc1`: the z-score was -0.619.
With `CCC(C)NC(=O)COc1ccccc1[N+](=O)[O-]` (stereo not given), the z-score is -0.0414.
For `CCOc1cccc2cc(C(=O)Nc3ccccc3-c3ccccc3)c(=O)oc12` the value was -0.0386; for `O=C(NCc1ccccc1)c1cccc(S(=O)(=O)NCc2ccccc2)c1`, -0.241; for `COC(=O)C1=C(C)N(c2cc(Cl)cc(Cl)c2)C(=O)C1`, 0.0831.
Then `O=C1CCCC2=C1C1(CCCC1)N=C(Nc1nc3ccccc3s1)N2`, with -0.211; and `Cn1c(N2CCN(C(=O)Nc3ccc(F)cc3)CC2)nc2ccccc21`, with 0.346.
On to `COc1ccc(CCNC(=O)CSc2nnc(-c3ccccc3)c3ccccc23)cc1OC`, for which the z-score is -0.982.
For `Cc1c(C(=O)NCc2ccc(F)cc2)c(-c2ccccc2)nn1-c1ccccc1` the value was -0.0527; for `O=C1CC(SC(=NCc2ccc3c(c2)OCO3)Nc2ccccc2)C(=O)N1c1ccccc1` (stereo not given), -0.0575.
As to `COc1ccc(CNC(=S)Nc2cccc(C)c2)cc1`, the z-score stood at 0.00773.
Take `COc1ccc(NC(=O)COC(=O)Cn2c(C)nc3ccccc32)cc1OC`: the z-score was 0.144.
With `COc1nc(N)c(S(=O)(=O)c2ccccc2)cc1C#N`, the z-score was -0.113.
The compound `Cc1nn(Cc2ccc(F)cc2)c2sc(C(=O)Nc3nccs3)cc12` had a z-score of -0.146.
As for `C=CCNc1cc(C(F)(F)F)nc(-c2ccccn2)n1`, the z-score was found to be 0.279.
Then `CCC(=O)OCCNc1cc(Sc2nccn2C)c2nonc2c1[N+](=O)[O-]`, with -0.991.
For `O=C(Cn1cnc2ccccc2c1=O)N1CCOCC1` the value was -0.245; for `CCOc1ccc(C(=O)N/N=C/c2cccc3cccnc23)cc1`, -0.511.
In the case of `Cc1ccc(S(=O)(=O)N(C)CC(=O)OCc2nnc(-c3ccccc3)o2)cc1`, the z-score is -0.611.
`C[C@H](NC(=O)C1(c2ccccc2)CCN(C(=O)[C@H]2CSCN2C(=O)OC(C)(C)C)CC1)C(=O)O` yielded a z-score of 1.86.
`CC(CCc1ccccc1)NC(=O)N1CCOCC1` (stereo not given): the z-score is -0.733.
In the case of `CC(=O)Nc1ccc(S(=O)(=O)N2CCN(C(=O)N3CCCCCC3)CC2)cc1`, the z-score is -0.0707.
For `CC(C)[C@H](NC(=O)c1ccccc1)C(=O)OCC(=O)N1CCc2ccccc2C1` the value was -0.256; for `CCN(CC)CCCNC(=O)Cn1nc(-c2ccccc2)ccc1=O`, 0.099; for `C=CCn1c(NS(=O)(=O)c2ccccc2)c(S(=O)(=O)c2ccc(C)cc2)c2nc3ccccc3nc21`, -0.584.

The record behind these values is PubChem BioAssay AID488969 (Vanderbilt High Throughput Screening Facility, 2010).
